# From the supplement of paper PMC8728848
# Some of the results follow.
# B1: Siglec-F (Mus musculus), Q920G3 (protein)
# chain: MRWAWLLPLLWAGCLATDGYSLSVTGSVTVQEGLCVFVACQVQYPNSKGPVFGYWFREGANIFSGSPVATNDPQRSVLKEAQGRFYLMGKENSHNCSLDIRDAQKIDTGTYFFRLDGSVKYSFQKSMLSVLVIALTEVPNIQVTSTLVSGNSTKLLCSVPWACEQGTPPIFSWMSSALTSLGHRTTLSSELNLTPRPQDNGTNLTCQVNLPGTGVTVERTQQLSVIYAPQKMTIRVSWGDDTGTKVLQSGASLQIQEGESLSLVCMADSNPPAVLSWERPTQKPFQLSTPAELQLPRAELEDQGKYICQAQNSQGAQTASVSLSIRSLLQLLGPSCSFEGQGLHCSCSSRAWPAPSLRWRLGEGVLEGNSSNGSFTVKSSSAGQWANSSLILSMEFSSNHRLSCEAWSDNRVQRATILLVSGPKVSQAGKSETSRGTVLGAIWGAGLMALLAVCLCLIFFTVKVLRKKSALKVAATKGNHLAKNPASTINSASITSSNIALGYPIQGHLNEPGSQTQKEQPPLATVPDTQKDEPELHYASLSFQGPMPPKPQNTEAMKSVYTEIKIHKC
# Experiments:
# Assay in all cases: glycan array binding signal (z-score within array); higher = stronger binding
# Details in all cases: glycan notation: IUPAC condensed, linker removed
# Neu5Ac(a2-3)Gal(b1-4)Glc = target: Neu5Ac(a2-3)Gal(b1-4)Glc
# Method in brief: (§1)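 Columns mapping to the same glycan were averaged after glycan names were converted to IUPAC-condensed notation. The data come from 3228 arrays in the Consortium for Functional Glycomics database, limited to those with an available protein sequence. Binding is reported as a within-array Z-score averaged across arrays of one protein sequence and across linkers.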
# [1] = target: Neu5Ac(a2-3)Gal(b1-4)GlcNAc
# Method in brief: as §1
# [2] = target: Neu5Ac(a2-3)Gal(b1-4)GlcNAc(b1-2)Man
# Method in brief: as §1
# [3] = target: Neu5Ac(a2-3)Gal(b1-4)GlcNAc(b1-2)Man(a1-3)[GlcNAc(b1-2)Man(b1-4)GlcNAc(b1-2)Man(a1-6)]Man(b1-4)GlcNAc(b1-4)GlcNAc
# Method in brief: as §1
# [4] = target: Neu5Ac(a2-3)Gal(b1-4)GlcNAc(b1-2)Man(a1-3)[GlcNAc(b1-4)][Neu5Ac(a2-3)Gal(b1-4)GlcNAc(b1-2)Man(a1-6)]Man(b1-4)GlcNAc(b1-4)GlcNAc
# Method in brief: as §1
# [5] = target: Neu5Ac(a2-3)Gal(b1-4)GlcNAc(b1-2)Man(a1-3)[Neu5Ac(a2-3)Gal(b1-4)GlcNAc(b1-2)Man(a1-6)]Man(b1-4)GlcNAc(b1-4)GlcNAc
# Method in brief: as §1
# [6] = target: Neu5Ac(a2-3)Gal(b1-4)GlcNAc(b1-2)Man(a1-3)[Neu5Ac(a2-3)Gal(b1-4)GlcNAc(b1-2)Man(a1-6)]Man(b1-4)GlcNAc(b1-4)[Fuc(a1-6)]GlcNAc
# Method in brief: as §1
# [7] = target: Neu5Ac(a2-3)Gal(b1-4)GlcNAc(b1-2)Man(a1-3)[Neu5Ac(a2-6)Gal(b1-4)GlcNAc(b1-2)Man(a1-6)]Man(b1-4)GlcNAc(b1-4)GlcNAc
# Method in brief: as §1
# [8] = target: Neu5Ac(a2-3)Gal(b1-4)GlcNAc(b1-2)[Neu5Ac(a2-3)Gal(b1-4)GlcNAc(b1-4)]Man(a1-3)[GlcNAc(b1-4)][Neu5Ac(a2-3)Gal(b1-4)GlcNAc(b1-2)[Neu5Ac(a2-3)Gal(b1-4)GlcNAc(b1-6)]Man(a1-6)]Man(b1-4)GlcNAc(b1-4)GlcNAc
# Method in brief: as §1
# [9] = target: Neu5Ac(a2-3)Gal(b1-4)GlcNAc(b1-2)[Neu5Ac(a2-3)Gal(b1-4)GlcNAc(b1-4)]Man(a1-3)[GlcNAc(b1-4)][Neu5Ac(a2-3)Gal(b1-4)GlcNAc(b1-4)Man(a1-6)]Man(b1-4)GlcNAc(b1-4)GlcNAc
# Method in brief: as §1
# [10] = target: Neu5Ac(a2-3)Gal(b1-4)GlcNAc(b1-2)[Neu5Ac(a2-3)Gal(b1-4)GlcNAc(b1-6)]Man(a1-6)[Neu5Ac(a2-3)Gal(b1-4)GlcNAc(b1-2)Man(a1-3)]Man(b1-4)GlcNAc(b1-4)GlcNAc
# Method in brief: as §1
# [11] = target: Neu5Ac(a2-3)Gal(b1-4)GlcNAc(b1-2)[Neu5Ac(a2-3)Gal(b1-4)GlcNAc(b1-6)]Man(a1-6)[Neu5Ac(a2-3)Gal(b1-4)GlcNAc(b1-2)Man(a1-3)][GlcNAc(b1-4)]Man(b1-4)GlcNAc(b1-4)GlcNAc
# Method in brief: as §1
# [12] = target: Neu5Ac(a2-3)Gal(b1-4)GlcNAc(b1-3)Gal
# Method in brief: as §1
# [13] = target: Neu5Ac(a2-3)Gal(b1-4)GlcNAc(b1-3)Gal(b1-3)GlcNAc
# Method in brief: as §1
# [14] = target: Neu5Ac(a2-3)Gal(b1-4)GlcNAc(b1-3)Gal(b1-4)GlcNAc
# Method in brief: as §1
# [15] = target: Neu5Ac(a2-3)Gal(b1-4)GlcNAc(b1-3)Gal(b1-4)GlcNAc(b1-2)Man(a1-3)[Neu5Ac(a2-3)Gal(b1-4)GlcNAc(b1-3)Gal(b1-4)GlcNAc(b1-2)Man(a1-6)]Man(b1-4)GlcNAc(b1-4)GlcNAc
# Method in brief: as §1
# [16] = target: Neu5Ac(a2-3)Gal(b1-4)GlcNAc(b1-3)Gal(b1-4)GlcNAc(b1-3)Gal(b1-4)GlcNAc
# Method in brief: as §1
# [17] = target: Neu5Ac(a2-3)Gal(b1-4)GlcNAc(b1-3)Gal(b1-4)GlcNAc(b1-3)Gal(b1-4)GlcNAc(b1-2)Man(a1-3)[Neu5Ac(a2-3)Gal(b1-4)GlcNAc(b1-3)Gal(b1-4)GlcNAc(b1-3)Gal(b1-4)GlcNAc(b1-2)Man(a1-6)]GalNAc
# Method in brief: as §1
# [18] = target: Neu5Ac(a2-3)Gal(b1-4)GlcNAc(b1-3)Gal(b1-4)GlcNAc(b1-3)GalNAc
# Method in brief: as §1
# [19] = target: Neu5Ac(a2-3)Gal(b1-4)GlcNAc(b1-3)Gal(b1-4)GlcNAc(b1-3)[Neu5Ac(a2-3)Gal(b1-4)GlcNAc(b1-3)Gal(b1-4)GlcNAc(b1-6)]GalNAc
# Method in brief: as §1
# [20] = target: Neu5Ac(a2-3)Gal(b1-4)GlcNAc(b1-3)Gal(b1-4)GlcNAc(b1-6)[Gal(b1-3)]GalNAc
# Method in brief: as §1
# [21] = target: Neu5Ac(a2-3)Gal(b1-4)GlcNAc(b1-3)Gal(b1-4)[Fuc(a1-3)]GlcNAc
# Method in brief: as §1
# [22] = target: Neu5Ac(a2-3)Gal(b1-4)GlcNAc(b1-3)GalNAc
# Method in brief: as §1
# [23] = target: Neu5Ac(a2-3)Gal(b1-4)GlcNAc(b1-3)[Neu5Ac(a2-3)Gal(b1-4)GlcNAc(b1-6)]GalNAc
# Method in brief: as §1
# [24] = target: Neu5Ac(a2-3)Gal(b1-4)GlcNAc(b1-6)GalNAc
# Method in brief: as §1
# [25] = target: Neu5Ac(a2-3)Gal(b1-4)GlcNAc(b1-6)[Gal(b1-3)]GalNAc
# Method in brief: as §1
# [26] = target: Neu5Ac(a2-3)Gal(b1-4)GlcNAc(b1-6)[Neu5Ac(a2-3)Gal(b1-3)]GalNAc
# Method in brief: as §1
# [27] = target: Neu5Ac(a2-3)Gal(b1-4)GlcNAc6S
# Method in brief: as §1
# [28] = target: Neu5Ac(a2-3)Gal(b1-4)[Fuc(a1-3)]GlcNAc
# Method in brief: as §1
# [29] = target: Neu5Ac(a2-3)Gal(b1-4)[Fuc(a1-3)]GlcNAc(b1-2)Man
# Method in brief: as §1
binder,measurement,setting,value
B1,glycan array binding signal (z-score),Neu5Ac(a2-3)Gal(b1-4)Glc,-0.019
same,glycan array binding signal (z-score),[1],-0.011
same,glycan array binding signal (z-score),[2],-0.131
same,glycan array binding signal (z-score),[3],2.11
same,glycan array binding signal (z-score),[4],1.69
same,glycan array binding signal (z-score),[5],1.94
same,glycan array binding signal (z-score),[6],2.76
same,glycan array binding signal (z-score),[7],-0.014
same,glycan array binding signal (z-score),[8],8.27
same,glycan array binding signal (z-score),[9],5.53
same,glycan array binding signal (z-score),[10],0.264
same,glycan array binding signal (z-score),[11],5.76
same,glycan array binding signal (z-score),[12],0.068
same,glycan array binding signal (z-score),[13],-0.026
same,glycan array binding signal (z-score),[14],0.122
same,glycan array binding signal (z-score),[15],0.014
same,glycan array binding signal (z-score),[16],-0.001
same,glycan array binding signal (z-score),[17],0.062
same,glycan array binding signal (z-score),[18],-0.133
same,glycan array binding signal (z-score),[19],-0.026
same,glycan array binding signal (z-score),[20],-0.108
same,glycan array binding signal (z-score),[21],-0.108
same,glycan array binding signal (z-score),[22],0.027
same,glycan array binding signal (z-score),[23],0.066
same,glycan array binding signal (z-score),[24],-0.061
same,glycan array binding signal (z-score),[25],-0.103
same,glycan array binding signal (z-score),[26],0.072
same,glycan array binding signal (z-score),[27],0.325
same,glycan array binding signal (z-score),[28],-0.092
same,glycan array binding signal (z-score),[29],-0.074
